Measurements as given in PubChem BioAssay (Tox21).
“And” between values parts separate entries of the source, which are not always exact repeats. Identical values can stand only once. The shares of active, inactive and inconclusive entries below differ from those in the screen. For some assays here: Potencies beside an inconclusive call are fits to weak or partial responses and may not hold up. The source made the active and inactive calls. Unless noted, the call rests on the fitted dose curve; in most records, active means well fitted curve in the direction sought with a large enough effect in the repeat runs; inconclusive means weak or mixed curves; inactive means no such curve, though single readings can be large; an effect the other way counts as inactive or inconclusive.

Legend:
[1] = qHTS assay to identify small molecule agonists of the hypoxia (HIF-1) signaling pathway (AID 1224846; active means well fitted activation curve with a large enough effect in the signal ratio in the repeat runs, not every such curve was filed as active; inconclusive means weak or mixed curves; the % refers to the signal ratio; on activation: on the % scale 0 is the no-effect control and ±100 the full control effect); conditions: HRE-bla ME-180 cells, beta-lactamase ratio, 17 h; activation: at 76.8 µM (top of the series) unless noted
Outline: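 HRE-bla ME-180 cells (beta-lactamase reporter under hypoxia response element) were plated at 2,000 cells/well in medium with 0.5% dialyzed FBS, rested 5 hrs, then given compounds in DMSO for 17 hrs at 37C, 5% CO2. Reporter induction was read with CCF4-AM FRET substrate.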

[2] = qHTS assay to identify small molecule agonists of H2AX - cell viability counter screen (AID 1224847; calls by dose curve; further: nearly all actives have a fitted effect of over 30% in size)
Outline: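 CHO-K1 wt, 1000 cells/well, o/n 37C; cpds 15 conc, 3 h 37C, 0.76% DMSO; CellTiter-Glo, 30 min RT, luminescence.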

[3] = qHTS RealTime-Glo MT Cell Viability Assay in HEK293 cells - 32 hour (AID 1224868); further: nearly all actives have a fitted effect of over 50% in size
Outline: (§1)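 Reads taken at 0, 8, 16, 24, 32 and 40 h from the same wells. HEK293 cells (600/well) carried RealTime-Glo reagents from seeding, with compound added after a 5 h settle at 37 C.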

[4] = A CellTox Green Cytotoxicity Assay to monitor cytotoxicity in HEK293 cells - 40 hour (AID 1224871); further: nearly all actives have a fitted effect of over 45% in size
Outline: (§2)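 HEK293 cells premixed with CellTox Green dye were seeded at 600 cells/well and left 5 h at 37 C/5% CO2 before pin transfer of 23 nL compound in DMSO. Fluorescence from dye bound to dead-cell DNA was read during 40 h treatment.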

[5] = qHTS RealTime-Glo MT Cell Viability Assay in HEK293 cells - 16 hour (AID 1224872); further: nearly all actives have a fitted effect of over 50% in size
Outline: as §1

[6] = qHTS RealTime-Glo MT Cell Viability Assay in HepG2 cells - 8 hour (AID 1224873); further: nearly all actives have a fitted effect of over 55% in size
Outline: (§3)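 Real-time viability: cells seeded at 600 per well together with NanoLuc and cell-permeant prosubstrate, compounds added after 5 h incubation. Luminescence tracked at 0, 8, 16, 24, 32 and 40 h of exposure.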

[7] = qHTS RealTime-Glo MT Cell Viability Assay in HEK293 cells - 40 hour (AID 1224874); conditions: RealTime-Glo luminescence; max response: stronger effect = lower value; further: nearly all actives have a fitted effect of over 50% in size; on max response: on the % scale 0 is the no-effect control and ±100 the full control effect
Outline: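 HEK293 cells mixed with RealTime-Glo reagents (NanoLuc plus cell-permeant prosubstrate) at 600 cells/well, preincubated 5 h at 37 C/5% CO2, then given 23 nL compound in DMSO. Nonlytic luminescence from viable cells was read at 0, 8, 16, 24, 32 and 40 h.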

[8] = A CellTox Green Cytotoxicity Assay to monitor cytotoxicity in HEK293 cells - 32 hour (AID 1224881); further: nearly all actives have a fitted effect of over 40% in size
Outline: as §2

[9] = qHTS assay to identify small molecule antagonists of the estrogen related receptor (ERR) signaling pathway from Tox21 library (AID 1224848); further: nearly all actives have a fitted effect of over 50% in size
Outline: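 Antagonist-mode screen of the Tox21 10K library in an NTP-provided ERR reporter cell line; 18 h compound exposure at 37 C, luminescence measured with ONE-Glo.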

[10] = A CellTox Green Cytotoxicity Assay to monitor cytotoxicity in HepG2 cells - 40 hour (AID 1224879); further: nearly all actives have a fitted effect of over 40% in size
Outline: (§4)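 HepG2 cells were seeded together with the CellTox Green dye at 600 cells/well, left 5 h at 37 C/5% CO2, then given compounds in DMSO. Fluorescence from dye bound to dead-cell DNA was read repeatedly over 40 h of treatment at 37 C.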

[11] = qHTS RealTime-Glo MT Cell Viability Assay in HepG2 cells - 40 hour (AID 1224870); further: nearly all actives have a fitted effect of over 50% in size
Outline: as §3

[12] = A CellTox Green Cytotoxicity Assay to monitor cytotoxicity in HepG2 cells - 24 hour (AID 1224878); further: nearly all actives have a fitted effect of over 45% in size
Outline: as §4

[13] = A CellTox Green Cytotoxicity Assay to monitor cytotoxicity in HepG2 cells - 0 hour (AID 1224882); further: nearly all actives have a fitted effect of over 35% in size
Outline: as §4

[14] = A CellTox Green Cytotoxicity Assay to monitor cytotoxicity in HEK293 cells - 24 hour (AID 1224875); further: nearly all actives have a fitted effect of over 45% in size
Outline: as §2

[15] = qHTS RealTime-Glo MT Cell Viability Assay in HepG2 cells - 24 hour (AID 1224867); further: nearly all actives have a fitted effect of over 50% in size
Outline: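 HepG2 suspension premixed with RealTime-Glo reagents is plated at 600 cells per well and left 5 h at 37 C/5% CO2. Compounds in DMSO then go in, and bioluminescence reflecting viable cell number is recorded over 40 h.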
Potency means the concentration at half of the fitted maximal effect; tags describe the fitted curve by direction and shape or compound fluorescence and quenching.

O=C1CCCc2c1cc1ccc3cccc4ccc2c1c34
inconclusive: Potency [2] 128 µM [cytotoxic, single point] | Potency [4] 55.6 µM [activator, single point] | Potency [5] 14 µM [cytotoxic, partial curve] | Potency [6] 44.2 µM [falling, partial curve, poor fit] | Potency [8] 62.4 µM [activator, single point]
active: Potency [1] 49.6 µM | Potency [3] 11.1 µM | Potency [7] 9.89 µM

CC(=O)CCc1ccccc1
inactive: Potency [1] | Potency [9] | max response [7] 1.52% and -3.07%

CC(C)NC(=O)c1ccc(C=O)cc1
inactive: Potency [1] | Potency [2] | Potency [10]

CO[C@@H]1[C@@H](OC)[C@H](C)[C@@](O)(CC(=O)O)O[C@H]1[C@H](C)[C@H]1O[C@@]2(CC[C@@](C)([C@H]3CC[C@@](C)([C@@H]4O[C@@H]([C@H]5O[C@](C)(O)[C@H](C)C[C@@H]5C)C[C@@H]4OC4C[C@H](OC)[C@@H](OC)[C@H](C)O4)O3)O2)C[C@H](O)[C@H]1C (stereo not given in full)
active: Potency [11] 6.01 µM | Potency [4] 4.77 µM | Potency [5] 5.35 µM | Potency [12] 12 µM | Potency [10] 6.74 µM
inconclusive: Potency [1] 21.3 µM [falling, partial curve] | Potency [2] 34.8 µM [cytotoxic, partial curve] | Potency [6] 7.56 µM [falling, partial curve] | Potency [8] 9.52 µM [activator, partial curve] | Potency [13] 1.51 µM [activator, partial curve]

CCC(C)(CCC(C)C)C(=O)[O][Sn]([CH3])([CH3])[O]C(=O)C(C)(CC)CCC(C)C (stereo not given)
inconclusive: Potency [1] 34.7 µM [falling, partial curve, poor fit] | Potency [9] 54.5 µM [inhibitor, partial curve] | Potency [3] 3.47 µM [rising, partial curve] | Potency [5] 6.92 µM [rising, partial curve]
inactive: Potency [8]

CN(C)[C@@H]1C(=O)C(C(N)=O)=C(O)[C@@]2(O)C(=O)C3=C(O)c4c(O)cccc4C[C@H]3C[C@@H]12
inconclusive: Potency [1] 26.8 µM | Potency [9] 23.7 µM [inhibitor, partial curve]
inactive: Potency [14]

Oc1cccc2c(O)cccc12
inconclusive: Potency [1] 54.9 µM | Potency [2] 50.5 µM [rising, partial curve] | Potency [3] 12.3 µM [rising, full curve, poor fit] | Potency [5] 24.5 µM [rising, partial curve]

CC(=O)[C@H]1CC[C@H]2[C@@H]3C=CC4=CC(=O)CC[C@@]4(C)[C@@H]3CC[C@]12C
inactive: Potency [1]
inconclusive: Potency [2] 49.2 µM [cytotoxic, partial curve] | Potency [3] 19 µM [cytotoxic, partial curve] | Potency [7] 19 µM [cytotoxic, partial curve]

CCCCCCCC(=O)Oc1c(Br)cc(C#N)cc1Br
active: Potency [5] 38.8 µM | Potency [7] 38.8 µM
inconclusive: Potency [1] 48.8 µM [falling, single point] | Potency [2] 113 µM [cytotoxic, single point] | Potency [4] 21.8 µM [activator, partial curve, poor fit] | Potency [8] 21.8 µM [activator, partial curve, poor fit]

CCCc1ccc(OCC(=O)N2CCN(C(=O)COc3ccc(CCC)cc3OC)CC2)c(OC)c1
inconclusive: Potency [1] 30.1 µM [falling, single point] | Potency [9] 4.22 µM [inhibitor, full curve] | Potency [15] 10.7 µM [falling, partial curve] | Potency [4] 19 µM [activator, partial curve] | Potency [6] 21.3 µM [falling, partial curve] | Potency [8] 19 µM [activator, partial curve, poor fit]

O=C(OCC1CO1)C1CCCCC1C(=O)OCC1CO1 (stereo not given)
inconclusive: Potency [1] 55 µM | Potency [9] 68.7 µM [inhibitor, single point] | Potency [3] 24.6 µM [cytotoxic, partial curve, poor fit] | Potency [7] 24.6 µM [cytotoxic, partial curve]

Oc1ccc(N=Nc2ccccc2)cc1
active: Potency [3] 19.8 µM | Potency [7] 22.2 µM | Potency [8] 44.2 µM
inconclusive: Potency [1] 35.1 µM [falling, partial curve] | Potency [2] 115 µM [cytotoxic, single point] | Potency [4] 44.2 µM [activator, partial curve, poor fit] | Potency [14] 49.6 µM [activator, single point] | Potency [12] 62.5 µM [activator, single point] | Potency [10] 55.7 µM [activator, single point]
